Laboratory results as given in PubChem BioAssay AID624418 (National Center for Advancing Translational Sciences (NCATS), 2012).
Among all 410,000 compounds or so, about 530 (0.13%) were called active. The shares of active, inactive and inconclusive entries below differ from those in the screen. Calls come from the whole dose curve; as a rule, active = well fitted inhibition curve with a large enough effect; inconclusive = small, poorly fitted or top-dose-only effect, or another doubt; inactive = no such curve, though single readings can be large or run the other way. Where the call is inconclusive, the potency comes from a doubtful curve fit.
% is set by controls: 0 for no effect and ±100 for the full control effect; potency is the fitted concentration of half-maximal effect.

Test: qHTS of GLP-1 Receptor Inverse Agonists: Cytotox Screen
Settings: HEK293 cAMP-luciferase reporter cells, luminescence, 24 h; activity change, negative = inhibition: at 38.3 µM (top of the series) unless noted
Procedure, shortened: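 Luminescence readout: signal drop marks cytotoxicity. Plated cells grew 12 h at 37 °C, 5% CO2, received 23 nL compound for 24 h, then got luciferase reagent, read after 12 min at RT.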
For O=C(Nc1nonc1-c1ccc(Cl)cc1)c1ccccc1F, the “activity change, negative = inhibition” value was inactive: 10.3%.
With COC(=O)CC1COc2ccccc2N1S(=O)(=O)c1ccc(OC)cc1 (stereo not given) the Potency was inconclusive: 10 µM [inhibitor, single point].
For CC(C)CN(CCCNC(=O)c1cc(-c2ccc(Br)s2)nc2ccccc12)CC(C)C, the “activity change, negative = inhibition” value was inactive: 0.636%.
With Cc1ccc(Nc2c(-c3ccccc3O)nc3ncccn23)cc1 the “activity change, negative = inhibition” value was inactive: -15.1%.
In the case of Cc1c(NC(=O)CN2CCN(c3ccc([N+](=O)[O-])cc3)CC2)c(=O)n(-c2ccccc2)n1C, the Potency is reported as inconclusive: 28.2 µM [inhibitor, single point].
For CS(=O)(=O)N1CCN(c2ccc([N+](=O)[O-])c(NCc3ccccc3)c2)CC1, the Potency was inconclusive: 10 µM [inhibitor, partial curve, poor fit].
In the case of C=CCC[C@H](Cc1ccc(F)cc1)C(=O)OC[C@@H](Cc1c[nH]c2ccccc12)NC(=O)[C@@H](CC=C)CC(=O)N(CCO)Cc1ccccc1, the Potency is reported as inconclusive: 12.6 µM [inhibitor, single point].
For COc1ccc(-c2nc(C(N)=O)c3[nH]c(=O)n(-c4cccc(Cl)c4)c3n2)cc1OC, the Potency was inconclusive: 28.2 µM [inhibitor, single point].
With OCC1(Cc2cccc(C(F)(F)F)c2)CCN(Cc2cc3ccccc3o2)CC1 the Potency was inconclusive: 28.2 µM [inhibitor, single point].
In the case of CCc1ccc2nc(NC(=O)c3cc(C)on3)sc2c1, the Potency is reported as inconclusive: 7.94 µM [inhibitor, partial curve, poor fit].
In the case of COc1cc(NC(=O)c2ccco2)c(OC)cc1NC(=O)CSc1nnc(-c2cccs2)n1C, the Potency is reported as inconclusive: 20 µM [inhibitor, single point].
With Cc1ccccc1NC(=S)NCc1ccc(F)cc1 the Potency was inconclusive: 28.2 µM [inhibitor, single point].
For CCOC(=O)c1cnc2c(OC)cccc2c1N1CCN(c2ccccc2OC)CC1, the Potency was inconclusive: 25.1 µM [inhibitor, single point].
In the case of CC(Nc1nc(-c2ccc(Cl)cc2)cs1)c1nc2cc(Cl)c(N3CCCCC3)cc2n1CCOCCO (stereo not given), the Potency is reported as inconclusive: 28.2 µM [inhibitor, single point].
With CC(C)(C)C1CCc2c(sc(NC(=O)c3ccco3)c2C(N)=O)C1 (stereo not given) the “activity change, negative = inhibition” value was inactive: 3.64%.
For O=C(O)c1cccc2c1-c1ccccc1/C2=N\Nc1ccccc1, the Potency was inconclusive: 25.1 µM [inhibitor, single point].
For Cc1cc(NC(=O)c2oc3ccccc3c2C)ccc1-n1cnnn1, the Potency was inconclusive: 0.355 µM [inhibitor, full curve, poor fit].
In the case of CN(C)CCNc1ncnc2c1cnn2-c1ccc(Cl)cc1, the Potency is reported as inconclusive: 25.1 µM [inhibitor, single point].
With COC(=O)c1ccccc1NC(=O)c1cc(-c2ccc(Cl)cc2)on1 the “activity change, negative = inhibition” value was inactive: -1.7%.
For COCCNC(=O)c1ccc2c(=O)n(CCOC)c(=O)[nH]c2c1, the “activity change, negative = inhibition” value was inactive: -1.52%.
For O=C(NC(=S)Nc1ccccc1N1CCCC1)c1cccs1, the Potency was inconclusive: 28.2 µM [inhibitor, single point].
With C=CCOc1ccc(C2C(C(=O)c3ccco3)=C(O)C(=O)N2Cc2cccnc2)cc1 (stereo not given) the Potency was inconclusive: 31.6 µM [inhibitor, single point].
In the case of O=C(Nc1cccc2c1CCCC2)c1cc([N+](=O)[O-])ccc1Cl, the Potency is reported as inconclusive: 11.2 µM [inhibitor, single point].
In the case of COc1ccccc1NC(=S)NN=C(C)c1ccccn1, the Potency is reported as inconclusive: 22.4 µM [inhibitor, partial curve, poor fit].
With Cc1nc(Nc2ccc(Cl)c(Cl)c2)sc1C(=O)Nc1ccccc1 the Potency was inconclusive: 10 µM [inhibitor, partial curve].
With Cc1ccc(NC(=S)N(CCCN2CCCC(C)C2)Cc2ccco2)cc1C (stereo not given) the Potency was inconclusive: 28.2 µM [inhibitor, single point].
In the case of O=C(Nc1cccc(C(=O)O)c1)/C(=C\c1ccco1)NC(=O)c1ccccc1Cl, the “activity change, negative = inhibition” value is reported as inactive: 4.34%.
With CCOC(=O)C1=C(C)NC2=C(C(=O)CCC2)C1c1coc2ccccc2c1=O (stereo not given) the Potency was inconclusive: 8.91 µM [inhibitor, partial curve, poor fit].
With NNC(=O)c1cc2ccccc2[nH]1 the Potency was inconclusive: 0.891 µM [inhibitor, full curve, poor fit].
With c1ccc(-c2csc3ncnc(NCc4ccccn4)c23)cc1 the “activity change, negative = inhibition” value was inactive: -6.38%.
In the case of COc1cc(C(C)=O)ccc1OCc1cc(C(=O)N(C)CCC2CCCCO2)no1 (stereo not given), the “activity change, negative = inhibition” value is reported as inactive: -5.29%.
For CCC(C)(C)NC(=O)C(c1cccs1)N(CC1CCCO1)C(=O)Cn1nnc2ccccc21 (stereo not given), the “activity change, negative = inhibition” value was inactive: -12.5%.
With COc1ccc(-n2cc(C(=O)N(C)c3cc(C)ccc3OC)c3ccccc3c2=O)cc1 the “activity change, negative = inhibition” value was inactive: -10%.
With CN(C)c1ccc(N/C=C/C(=O)c2ccco2)cc1 the Potency was inconclusive: 5.01 µM [inhibitor, partial curve].
In the case of CC1(C)CC2CC(C)(CN2/C=N/c2sc3c(c2C#N)CC(C)(C)NC3(C)C)C1 (stereo not given), the Potency is reported as inconclusive: 22.4 µM [inhibitor, single point].
For CCOC(=O)N1CCN(S(=O)(=O)c2ccc(C(=O)Nc3ccc(F)cc3F)cc2)CC1, the Potency was inconclusive: 15.8 µM [inhibitor, partial curve, poor fit].
In the case of CN(CCCCCCN(C)Cc1ccccc1O)Cc1ccccc1O, the Potency is reported as inconclusive: 11.2 µM [inhibitor, single point].
In the case of Cc1ccc(/C=N/NC(=S)NC(C)C)o1, the Potency is reported as inconclusive: 4.47 µM [inhibitor, full curve].
In the case of CCOC(=O)c1c(NC(=O)CCCOc2ccc(Cl)cc2)sc2c1CCC2, the “activity change, negative = inhibition” value is reported as inactive: 16.9%.
With Cc1ccc(S(=O)(=O)N2c3cc(C)ccc3OCC2C(C)(C)C)cc1 (stereo not given) the Potency was inconclusive: 3.98 µM [inhibitor, partial curve, poor fit].
For Cc1ccc(S(=O)(=O)N(CC(=O)N=Nc2c(O)[nH]c3ccccc23)c2cccc(C)c2)cc1, the Potency was inconclusive: 7.08 µM [inhibitor, partial curve, poor fit].
For Nc1n[nH]c(N)c1N=Nc1ccc2c(c1)OCO2, the “activity change, negative = inhibition” value was inactive: -33%.
In the case of O=C(/C=C/c1ccccc1O)c1ccco1, the Potency is reported as inconclusive: 7.08 µM [inhibitor, single point].
In the case of COc1cc(C(=O)NCCCNc2ccc([N+](=O)[O-])cc2)cc(OC)c1OC, the Potency is reported as inconclusive: 31.6 µM [inhibitor, single point].
With Cc1ccccc1C(=O)NC(=S)Nc1ccc(Oc2ccc(Cl)cc2)cc1 the Potency was inconclusive: 28.2 µM [inhibitor, single point].
With Cc1c(C(=O)NC(C)c2ccccc2)c(-c2ccccc2)nn1-c1ccccc1 (stereo not given) the Potency was inconclusive: 28.2 µM [inhibitor, single point].
For Cc1cc(Nc2cccc(Br)c2)c2ccccc2n1, the Potency was inconclusive: 11.2 µM [inhibitor, partial curve, poor fit].
In the case of Cc1ccc(Nc2nnc(C3C(=O)N(C)C4(C)CC3c3cc(Br)ccc3O4)s2)cc1 (stereo not given), the Potency is reported as inconclusive: 3.16 µM [inhibitor, partial curve, poor fit].
For CN1CCC(N(C)S(=O)(=O)c2ccc(NC(=O)c3ccc(S(=O)(=O)N(C)C)cc3)cc2)CC1, the “activity change, negative = inhibition” value was inactive: 12.6%.
For O=C(NCCN1CCC(n2c(=O)[nH]c3ccccc32)CC1)c1ccc(F)cc1F, the “activity change, negative = inhibition” value was inactive: -4.42%.
In the case of COc1ccccc1-c1nc(=S)c(C(C)=O)c(C)[nH]1, the Potency is reported as inconclusive: 0.501 µM [inhibitor, full curve, poor fit].
For COc1ccc(/C=C/C(=O)c2cc(F)ccc2OC(=O)c2ccccc2C)cc1OC, the Potency was inconclusive: 0.355 µM [inhibitor, full curve, poor fit].
In the case of COc1cc(NC(=S)Nc2cccc(C)n2)cc(OC)c1OC, the Potency is reported as inconclusive: 14.1 µM [inhibitor, partial curve, poor fit].
For COc1cc(OC)c(OC)cc1CCC(C)NCCC(c1ccccc1)c1ccccc1 (stereo not given), the Potency was inconclusive: 20 µM [inhibitor, single point].
In the case of CCN(CC)CCN(C(=O)C1=COCCO1)c1nc2cc(C)cc(C)c2s1, the Potency is reported as inconclusive: 28.2 µM [inhibitor, single point].
With S=C(NC1CCCCC1)NC1CC2C=CC1C2 (stereo not given) the Potency was inconclusive: 20 µM [inhibitor, single point].
In the case of COc1ccc(Nc2cc(C)nc3c(C)cccc23)cc1OC, the Potency is reported as inconclusive: 0.794 µM [inhibitor, full curve, poor fit].
For CN1c2ccc(C=O)c3c(C=O)ccc(c23)N(C)C1(C)C, the Potency was inconclusive: 7.94 µM [inhibitor, partial curve, poor fit].
With CCC(=O)N1CCc2cc(Br)cc(S(=O)(=O)N3CCN(C(=O)c4ccco4)CC3)c21 the “activity change, negative = inhibition” value was inactive: -10.4%.
In the case of CCCCn1c(-c2sccc2C)n[nH]c1=S, the Potency is reported as inconclusive: 28.2 µM [inhibitor, single point].
For Fc1ccc(C(c2nnnn2Cc2ccco2)N2CCN(C3CCCCC3)CC2)cc1 (stereo not given), the Potency was inconclusive: 28.2 µM [inhibitor, single point].
With Cc1ccc(-c2cc(C(=O)Nc3ccc(S(=O)(=O)N4CC(C)OC(C)C4)cc3)[nH]n2)c(O)c1 (stereo not given) the “activity change, negative = inhibition” value was inactive: -13.3%.
For C=CC[C@@H](Cc1ccc(F)cc1)C(=O)OC[C@@H]1CCCN1C(=O)[C@H](CC=C)CC(=O)N[C@H](CO)Cc1ccccc1, the Potency was inconclusive: 11.2 µM [inhibitor, single point].
With CCOc1cccc(C(=O)NC(=S)Nc2cccc(C)c2)c1 the Potency was inconclusive: 28.2 µM [inhibitor, single point].
For COc1ccc(N/N=C(\C#N)C(=N)N2CCCCC2)cc1, the Potency was inconclusive: 12.6 µM [inhibitor, single point].
